Data: PubChem BioAssay AID1460 (National Center for Advancing Translational Sciences (NCATS), 2008)
The whole screen tested about 270,000 compounds, of which about 5,800 (2.1%) were called active. Inconclusive results, whose numbers are uncertain, are shown with a selection of clear calls. The call rests on the fitted dose curve; in most records, active means well fitted inhibition curve with a large enough effect; inconclusive means small, poorly fitted or top-dose-only effect; inactive means flat fitted curve, though single readings scatter. Potencies beside an inconclusive call are fits to weak or partial responses and may not hold up.
Further: nearly all actives have a fitted effect of over 55% in size.
On the % scale 0 is the no-effect control and ±100 the full control effect; potency means the concentration at half of the fitted maximal effect; tags describe the fitted curve by direction and shape.

What follows are compounds tested against Microtubule-associated protein tau (Homo sapiens) (UniProt P10636) (assay: qHTS for Inhibitors of Tau Fibril Formation, Thioflavin T Binding). Conditions: recombinant tau K18 P301L (four-repeat tau fragment), heparin-induced fibrillization, ThT fluorescence; series mostly up to 57.4 µM; activity, negative = inhibition: at the top concentration.
UniProt P10636, sequence (P10636 whole entry, looked up, the tested form may be a part): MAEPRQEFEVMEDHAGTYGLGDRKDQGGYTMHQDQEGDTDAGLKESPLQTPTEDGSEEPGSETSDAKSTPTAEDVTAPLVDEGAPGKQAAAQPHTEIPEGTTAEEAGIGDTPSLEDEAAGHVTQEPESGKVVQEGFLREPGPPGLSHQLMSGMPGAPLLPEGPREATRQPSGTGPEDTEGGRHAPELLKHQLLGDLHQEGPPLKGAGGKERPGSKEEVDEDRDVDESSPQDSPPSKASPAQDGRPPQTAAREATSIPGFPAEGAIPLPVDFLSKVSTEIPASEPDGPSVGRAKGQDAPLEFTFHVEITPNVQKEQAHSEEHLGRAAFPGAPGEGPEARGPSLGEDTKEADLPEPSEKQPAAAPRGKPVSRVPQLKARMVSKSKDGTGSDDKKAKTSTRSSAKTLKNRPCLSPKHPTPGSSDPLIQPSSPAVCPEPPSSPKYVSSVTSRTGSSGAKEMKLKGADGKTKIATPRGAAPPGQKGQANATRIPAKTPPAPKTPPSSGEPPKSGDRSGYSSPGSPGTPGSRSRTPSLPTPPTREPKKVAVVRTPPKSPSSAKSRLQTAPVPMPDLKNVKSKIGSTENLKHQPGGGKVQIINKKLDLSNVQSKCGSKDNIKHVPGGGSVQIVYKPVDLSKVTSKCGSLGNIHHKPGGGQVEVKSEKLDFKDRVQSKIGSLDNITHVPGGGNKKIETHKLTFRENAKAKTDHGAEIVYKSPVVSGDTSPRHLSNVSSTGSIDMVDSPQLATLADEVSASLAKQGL
Method in brief: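 Aggregation was driven by heparin (20 uM final) acting on recombinant tau […] bearing P301L in 100 mM sodium acetate pH 7; fibrils were detected with Thioflavin T.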
`CC(/C=C/c1ccc(N(C)C)cc1)=N\N=C(/N)SC1CC(=O)N(c2ccc(C(=O)O)cc2)C1=O` (stereo not drawn) was tested, and the “activity, negative = inhibition” value was inactive: -1.38%.
For `COc1ccc(-c2nnc(Nc3ccc(CC(N)=O)cc3)c3ccccc23)cc1`, the “activity, negative = inhibition” value was inactive: -0.951%.
In the case of `O=C(CSC1=N/C(=C/c2ccco2)C(=O)N1c1ccc(OC(F)F)cc1)NC1CCS(=O)(=O)C1` (stereo not drawn), the Potency is reported as active: 28.2 µM.
With `CCOc1ccccc1Nc1ccc(C(=O)O)cc1NC(C)=O` the “activity, negative = inhibition” value was inactive: 13.2%.
For `CCOC(=O)c1sc2nc(C3CC3)cc(-c3ccc(F)cc3)c2c1N`, the Potency was inconclusive: 11.2 µM [inhibitor, partial curve].
With `COc1ccc(CNc2nc(-c3ccccc3OC)nc3ccccc23)c(OC)c1` the Potency was inconclusive: 28.2 µM [inhibitor, partial curve, poor fit].
`CCC(Sc1nnnn1C)C(=O)Nc1ccc(C(C)=O)cc1` (stereo not drawn) was tested, and the Potency was inconclusive: 20 µM [inhibitor, partial curve].
With `O=C(O)c1cc([N+](=O)[O-])ccc1NCCCc1ccccc1` the Potency was active: 4.47 µM [middle of 4 runs].
For `O=C(NCC(c1cccnc1)N1CCc2ccccc2C1)C(=O)Nc1ccccc1` (stereo not drawn), the Potency was active: 1.58 µM.
With `Cc1cnc(C(=O)Nc2cc(S(=O)(=O)N3CCOCC3)ccc2N2CCN(C)CC2)cn1` the Potency was inconclusive: 39.8 µM [inhibitor, single point].
In the case of `CCOc1ccc(-c2cc(N3C(=O)Nc4ccccc4N3O)on2)cc1`, the Potency is reported as inconclusive: 20 µM [inhibitor, partial curve].
With `Cc1cc(C)c(NC(=O)/C(=C/c2ccco2)c2ccccc2)c(C)c1` the Potency was inconclusive: 35.5 µM [inhibitor, partial curve, poor fit].
With `CC1CCN(S(=O)(=O)c2ccc3nc(Nc4ccc(C#N)cc4)ccc3c2)CC1` the Potency was inconclusive: 22.4 µM [activator, partial curve, poor fit].
In the case of `O=C(Oc1oc(-c2ccco2)nc1C=Nc1ccccc1)c1ccoc1`, the Potency is reported as inconclusive: 17.8 µM [inhibitor, partial curve].
With `COc1ccccc1OCc1nnc(SCC(=O)c2cc(Cl)ccc2OC)o1` the Potency was inconclusive: 12.6 µM [inhibitor, partial curve].
For `Cc1ccn2c(c1)nc(=S)n2C(=O)c1ccccc1`, the Potency was inconclusive: 14.1 µM [inhibitor, partial curve].
In the case of `CCOC(=O)c1c(Nc2cc(C)cc(C)c2)nnc(-c2ccccc2)c1-c1ccccc1`, the Potency is reported as inconclusive: 17.8 µM [inhibitor, partial curve].
`N#Cc1cccc(NC(=O)C2SC(=Nc3ccccc3)C(C(=O)N3CCOCC3)=C2N)c1` (stereo not drawn) was tested, and the Potency was inconclusive: 39.8 µM [inhibitor, single point].
`Cn1c(=O)n(Cc2ccc(F)cc2)c(=O)c2c1nc1n2CCCN1C1CCCCC1` was tested, and the Potency was inconclusive: 14.1 µM [inhibitor, partial curve].
`COC(=O)CN1C(=S)N(c2ccc(OC)cc2)C(=O)/C1=C/c1ccc(N2CCOCC2)cc1` was tested, and the Potency was inconclusive: 14.1 µM [inhibitor, partial curve].
For `CCCCC(=O)OC1=C(C(=O)c2ccccc2)N(CC)S(=O)(=O)c2ccccc21`, the Potency was inconclusive: 20 µM [inhibitor, partial curve].
`Cc1ncc(CO)c(/C=N/NC(=S)Nc2cccc(Cl)c2)c1O` was tested, and the Potency was inconclusive: 20 µM [inhibitor, partial curve].
In the case of `O=c1[nH][nH]c(-c2ccccc2)c1C=Nc1ccccc1`, the “activity, negative = inhibition” value is reported as inactive: -8.74%.
In the case of `C=CCn1c(/N=C/c2ccc(N(C)C)cc2)nc2ccccc21`, the “activity, negative = inhibition” value is reported as inactive: 1.11%.
In the case of `CC(CC(=O)O)Nc1ccccc1O` (stereo not drawn), the Potency is reported as inconclusive: 25.1 µM [inhibitor, single point].
With `COc1ccc(Cn2ccc3nc(C)c(C(=O)Nc4ccc(OC(F)(F)F)cc4)cc3c2=O)cc1` the “activity, negative = inhibition” value was inactive: -4.25%.
For `CCOc1ccc(Nc2nc(N)nc(CN3CCN(c4ccccc4F)CC3)n2)cc1`, the Potency was inconclusive: 25.1 µM [inhibitor, partial curve].
In the case of `CCN1CCN(c2cc(C)c3cc(NC(=O)c4cncc(Br)c4)ccc3n2)CC1`, the Potency is reported as inconclusive: 14.1 µM [inhibitor, partial curve].
For `O=C(O)c1cc(NCc2cc(O)ccc2O)ccc1O`, the Potency was inconclusive: 31.6 µM [inhibitor, single point].
In the case of `Nc1cnc(Nc2ccc(Br)cc2)nc1N`, the Potency is reported as inconclusive: 17.8 µM [inhibitor, partial curve].
In the case of `CCOc1ccccc1NC(=O)CN1c2ccccc2S(=O)(=O)c2ccccc21`, the “activity, negative = inhibition” value is reported as inactive: -6.04%.
For `O=C(Nc1ccc(F)cc1F)c1cnn(-c2ccc(F)cc2)c1-n1cccc1`, the “activity, negative = inhibition” value was inactive: 7.82%.
With `COC(=O)[C@@]1(Cc2ccc(OC)cc2)[C@H]2c3cc(C(=O)N(C)C)n(Cc4cccc5ccccc45)c3C[C@H]2CN1C(=O)c1ccccc1` the Potency was inconclusive: 15.8 µM [inhibitor, partial curve].
With `CCC(=O)Oc1ccc2c(C)cc(=O)oc2c1C(=O)c1ccccc1` the Potency was inconclusive: 39.8 µM [inhibitor, single point].
`Nc1ccc(Cc2nc3cc4ccccc4cc3[nH]2)cc1` was tested, and the Potency was inconclusive: 28.2 µM [inhibitor, partial curve].
In the case of `Cn1cnnc1Sc1ccc(/C=C(\CC(=O)O)c2nc3ccccc3s2)cc1[N+](=O)[O-]`, the Potency is reported as inconclusive: 35.5 µM [inhibitor, partial curve].
With `COCCn1c(=O)sc2ccccc2c1=O` the “activity, negative = inhibition” value was inactive: -2.73%.
In the case of `CN(C)CCCNS(=O)(=O)c1ccc(N2CCC(c3ccc(Cl)cc3)=N2)cc1`, the Potency is reported as inconclusive: 15.8 µM [inhibitor, partial curve].
`CCCCC(=O)OC1=C(C(=O)c2ccccc2)N(C)S(=O)(=O)c2ccccc21` was tested, and the Potency was active: 14.1 µM.
`COc1cc2[nH]c(=O)n(CCCCCC(=O)N3CCN(c4ccccc4)CC3)c(=O)c2cc1OC` was tested, and the Potency was inconclusive: 1.12 µM [inhibitor, full curve].
With `CC(C)(C)c1ccc(-c2csc(NNC3=NCCCCC3)n2)cc1` the Potency was active: 15.8 µM.
For `COc1cc2c(cc1OC)[C@@H]1C(=O)c3ccc4c(c3O[C@@H]1CO2)C=CC(C)(C)O4`, the Potency was inconclusive: 39.8 µM [inhibitor, single point].
With `O=c1oc2c(Cl)cc(Cl)cc2cc1-c1nnc(Nc2ccccc2F)s1` the Potency was inconclusive: 2.82 µM [inhibitor, partial curve].
`Clc1ccccc1CN1CCN(/N=C/C=C\c2ccco2)CC1` was tested, and the Potency was inconclusive: 14.1 µM [inhibitor, partial curve].
For `O=C1C2=C(Nc3ccccc3SC2c2ccccc2C(F)(F)F)c2ccccc21` (stereo not drawn), the Potency was inconclusive: 7.08 µM [inhibitor, partial curve].
For `CCCCCNC(=O)c1ccc2c(c1)nc(C)n2-c1cccc(C)c1`, the “activity, negative = inhibition” value was inactive: -5.27%.
`CCN(CC)S(=O)(=O)c1ccc(Cl)nc1` was tested, and the “activity, negative = inhibition” value was inactive: 0.788%.
`Cc1c(/C=N/NC(=O)CNc2ccccc2)c2ccccn2c1C(=O)c1ccccc1` was tested, and the Potency was inconclusive: 14.1 µM [inhibitor, partial curve].
`Cc1ccc(C)c(CN2C(=O)c3ccccc3S(=O)c3ccc(C(=O)N4CCN(c5ccccn5)CC4)cc32)c1` (stereo not drawn) was tested, and the “activity, negative = inhibition” value was inactive: 2.8%.
`CCOc1cc(/C=N/NC(=O)COc2ccc(C)cc2)ccc1OC(=O)c1cccs1` was tested, and the Potency was inconclusive: 10 µM [inhibitor, partial curve].
In the case of `CSc1nsc(SCC(=O)N2CCCc3ccccc32)n1`, the Potency is reported as inconclusive: 7.08 µM [inhibitor, partial curve, poor fit].
With `COc1ccc(NC(=O)CSc2nnc(-c3ccoc3C)n2CCc2ccccc2)cc1` the “activity, negative = inhibition” value was inactive: -19.9%.
For `CCN(CC)C(=O)c1sc2c(c1C)c(=O)n(-c1ccc(Cl)c(Cl)c1)c(=O)n2CC(=O)Nc1cccc(OC)c1`, the “activity, negative = inhibition” value was inactive: 16.2%.
`Cc1ccc(-c2nn(-c3ccccc3)cc2C2CC(c3cccs3)=NN2C(=O)CCCC(=O)O)cc1` (stereo not drawn) was tested, and the Potency was inconclusive: 25.1 µM [inhibitor, partial curve].
With `CCOc1ccc(CCNC(=O)c2cccc(-n3c(C)nc4cccnc43)c2)cc1` the “activity, negative = inhibition” value was inactive: 0.611%.
With `O=C1NC(=O)C(=C2CCCCCC2)S1` the “activity, negative = inhibition” value was inactive: -4.41%.
`COc1ccc(CC(=O)NNC(=O)Cc2ccc(OC)cc2)cc1` was tested, and the “activity, negative = inhibition” value was inactive: 4.24%.
With `Cc1cc(N2CCCC2=O)ccc1S(=O)(=O)NCCOc1ccccc1` the “activity, negative = inhibition” value was inactive: -9.47%.
In the case of `CC(C)c1nc2c(c(=O)c3ccccc3n2C)c(=O)n1CCc1ccccc1`, the Potency is reported as inconclusive: 39.8 µM [inhibitor, single point].
`Cn1c(C(=O)NCCCN2CCCCCC2)cc2c(=O)n(C)c3ccccc3c21` was tested, and the Potency was inconclusive: 31.6 µM [inhibitor, single point].
`COc1cccc(NC(=O)N2CCN(c3nc(-c4cccc(OC)c4)cs3)CC2)c1` was tested, and the Potency was inconclusive: 3.98 µM [inhibitor, full curve].
For `CCN1CCN(C(c2ccccc2)c2c(O)cc(C)n(Cc3ccco3)c2=O)CC1` (stereo not drawn), the Potency was inconclusive: 8.91 µM [inhibitor, partial curve].
In the case of `N/C(Cc1ccc(Cl)c(Cl)c1)=N\OC(=O)c1ccc(Br)o1`, the “activity, negative = inhibition” value is reported as inactive: -2.53%.
With `CC1Cc2cc(S(=O)(=O)N(C)c3ccc(Br)cc3)ccc2N1C(=O)C1CC1` (stereo not drawn) the “activity, negative = inhibition” value was inactive: -5.3%.
`C/C(=N\NC(=O)C(=O)Nc1cc(Cl)ccc1Cl)c1ccncc1` was tested, and the Potency was inconclusive: 2.82 µM [inhibitor, full curve].
For `CCN(CC)c1ccc([N+](=O)[O-])cc1/C=N/NC(=O)CC#N`, the Potency was inconclusive: 12.6 µM [inhibitor, partial curve].
In the case of `COc1ccc(C(=O)NC(=S)Nc2ccc(N3CCCC3)cc2)cc1OC`, the Potency is reported as inconclusive: 1.12 µM [inhibitor, full curve].
With `COC(=O)CCCC1=CC2=C(c3ccccc3)C(=O)C(C)(OC(=O)C3CCCC3)C(=O)C2=CN1CCCOC(C)C` (stereo not drawn) the Potency was inconclusive: 3.55 µM [inhibitor, single point].
